These are yes or no findings as the source states them, for the method shown. Binding seen in cells or lysates may run through a third protein. Some results given as binding are weak or reduced against the parent protein; the word gives no strength.

Sequences and labels used below:
T1: Shs1-CCG (S. cerevisiae) (UniProt Q07657)
T1 sequence: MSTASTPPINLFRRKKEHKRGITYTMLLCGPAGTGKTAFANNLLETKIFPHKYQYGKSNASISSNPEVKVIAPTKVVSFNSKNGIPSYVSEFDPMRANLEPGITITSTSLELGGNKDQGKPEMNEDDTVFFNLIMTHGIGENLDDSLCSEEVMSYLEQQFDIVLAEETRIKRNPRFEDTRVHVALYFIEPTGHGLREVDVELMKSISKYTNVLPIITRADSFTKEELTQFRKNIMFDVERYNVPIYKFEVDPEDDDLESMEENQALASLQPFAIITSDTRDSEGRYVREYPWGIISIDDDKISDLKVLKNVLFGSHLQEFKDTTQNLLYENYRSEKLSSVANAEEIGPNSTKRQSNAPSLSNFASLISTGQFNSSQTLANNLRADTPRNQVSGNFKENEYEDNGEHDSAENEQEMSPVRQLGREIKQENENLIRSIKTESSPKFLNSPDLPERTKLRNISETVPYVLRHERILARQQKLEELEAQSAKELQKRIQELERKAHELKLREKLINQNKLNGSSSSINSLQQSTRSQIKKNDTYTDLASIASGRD

B1: Nub-Gin4 (protein, UniProt Q12263 1-1142)
chain: MAINGNSIPAIKDNTIGPWKLGETLGLGSTGKVQLARNGSTGQEAAVKVISKAVFNTGNVSGTSIVGSTTPDALPYGIEREIIIMKLLNHPNVLRLYDVWETNTDLYLVLEYAEKGELFNLLVERGPLPEHEAIRFFRQIIIGVSYCHALGIVHRDLKPENLLLDHKYNIKIADFGMAALETEGKLLETSCGSPHYAAPEIVSGIPYQGFASDVWSCGVILFALLTGRLPFDEEDGNIRTLLLKVQKGEFEMPSDDEISREAQDLIRKILTVDPERRIKTRDILKHPLLQKYPSIRDSKSIRGLPREDTYLTPLSESNSSIDATILQNLVILWHGRDPEGIKEKLREPGANAEKTLYALLYRFKCDTQKELIKQQQVKKRQSISSVSVSPSKKVSTTPQRRRNRESLISVTSSRKKPISFNKFTASSASSSNLTTPGSSKRLSKNFSSKKKLSTIVNQSSPTPASRNKRASVINVEKNQKRASIFSTTKKNKRSSRSIKRMSLIPSMKRESVTTKLMSTYAKLAEDDDWEYIEKETKRTSSNFATLIDEIFEYEKYEQIRKEKEELERKVREAKAREELERRRRKQEEKERARKLLEKEDLKRKQEELKKQIEIDISDLEQELSKHKEEKLDGNIRSISAPMENEEKNINHLEVDIDNILRRRNFSLQTRPVSRLDPGIMFSSPTEEVSPVEPKRTENERLTTEKKILETIRRSKFLGSSFNIDKELKLSKMEYPSIIAPQRLSEERVVSDSNDGYESLILPKDGNGVSQLKDSTATTAPVSDGRLRKISEIRVPQFTRKSRHFSESNKRLSVLSMYSTKESFTNLVDILKNGNLDVNNQQSQRIPTPRSADDSEFLFETVNEEAEYTGNSSNDERLYDVGDSTIKDKSALKLNFADRFNGSNEAKQTDNLHLPILPPLNGDNELRKQNSQEGDQAHPKIKSMIPESGSSSHTEKEEENEEKEEKKPEQHKQEEDQEKREKVVDDMEPPLNKSVQKIREKNAGSQAKDHSKDHLKEHKQDKNTAIGNGSFFRKFSKSSDKTMELYAKISAKQLFNGLEKLLRGWTQYGLKNIKSHPNNLTLTGKLSSDNIFSLRSTLFEVNIYPRGKMSVVQFKKVSGSFKAVKKLVNEVENVLNKEGVLQK
B2: Nub-Sla2 (protein, UniProt P33338 1-968)
chain: MSRIDSDLQKALKKACSVEETAPKRKHVRACIVYTWDHQSSKAVFTTLKTLPLANDEVQLFKMLIVLHKIIQEGHPSALAEAIRDRDWIRSLGRVHSGGSSYSKLIREYVRYLVLKLDFHAHHRGFNNGTFEYEEYVSLVSVSDPDEGYETILDLMSLQDSLDEFSQIIFASIQSERRNTECKISALIPLIAESYGIYKFITSMLRAMHRQLNDAEGDAALQPLKERYELQHARLFEFYADCSSVKYLTTLVTIPKLPVDAPDVFLINDVDESKEIKFKKREPSVTPARTPARTPTPTPPVVAEPAISPRPVSQRTTSTPTGYLQTMPTGATTGMMIPTATGAANAIFPQATAQMQPDFWANQQAQFANEQNRLEQERVQQLQQQQAQQELFQQQLQKAQQDMMNMQLQQQNQHQNDLIALTNQYEKDQALLQQYDQRVQQLESEITTMDSTASKQLANKDEQLTALQDQLDVWERKYESLAKLYSQLRQEHLNLLPRFKKLQLKVNSAQESIQKKEQLEHKLKQKDLQMAELVKDRDRARLELERSINNAEADSAAATAAAETMTQDKMNPILDAILESGINTIQESVYNLDSPLSWSGPLTPPTFLLSLLESTSENATEFATSFNNLIVDGLAHGDQTEVIHCVSDFSTSMATLVTNSKAYAVTTLPQEQSDQILTLVKRCAREAQYFFEDLMSENLNQVGDEEKTDIVINANVDMQEKLQELSLAIEPLLNIQSVKSNKETNPHSELVATADKIVKSSEHLRVDVPKPLLSLALMIIDAVVALVKAAIQCQNEIATTTSIPLNQFYLKNSRWTEGLISAAKAVAGATNVLITTASKLITSEDNENTSPEQFIVASKEVAASTIQLVAASRVKTSIHSKAQDKLEHCSKDVTDACRSLGNHVMGMIEDDHSTSQQQQPLDFTSEHTLKTAEMEQQVEILKLEQSLSNARKRLGEIRRHAYYNQDDD
B3: Nub-Rlp7 (protein, UniProt P40693 1-322)
chain: MSSTQDSKAQTLNSNPEILLRKRRNADRTRIERQELAKKKREEQIKKKRSNKNKFVRAESIVAKTLATSREKERIKRVSILEDKKAKNETQHIASGKDFILKITEKANGAEENSVDLEETEEEEDDGLIREKTTYDGKPALLFIVRVRGPLAVNIPNKAFKILSLLRLVETNTGVFVKLTKNVYPLLKVIAPYVVIGKPSLSSIRSLIQKRGRIIYKGENEAEPHEIVLNDNNIVEEQLGDHGIICVEDIIHEIATMGESFSVCNFFLQPFKLNREVSGFGSLNRLRKIKQREAESRTRQFSNAATAPVIEVDIDSLLAKLN
B4: Nub-Sfb3 (protein, UniProt P38810 1-929)
chain: MSQQNILAASVSALSLDESTVHTGGASSKKSRRPHRAYHNFSSGTVPTLGNSPYTTPQLNQQDGFQQPQAFTPKQFGGFNNGSGSVMSTPVMVSQERFGASEASSPYGQSMLDMTAPQPTSHIVPTQRFEDQAQYLQRSFETCRDSVPPLPTTQFYCVDQGSCDPHLMSLSMYNIPESEHLRAATKLPLGLTIQPFSTLTPNDAEVPTIPLPMDGTPLRCRRCRAYANPKFQFTYDSSVICNICRVKMQVPGEHFAPMGPNGQRSDLNEKSELLHGTVDFLVPSIYNAIQEKELLPLHYVFLIDVSLLANENGSSLAMVEGVRSCIEYISDFQPNCEVAIIVYDNKLRFFNLRPDLDNAQEYIVSELDDVFLPFYNGLFVKPGNSMKIINDTLIKISGYISTDKYSHVPQVCYGSALQAAKLALDTVTGGQGGKIICSLNSLPTIGNGNLSLKRDNAHIAHVKCDNGFYKKLASDFLKSYISLDLYVTNAGFIDMATVGHPVEMTSGILKYYPHFQQETDAFTLVNDMVTNVSNIVGYQALLKVRCSTGLSVEQYYCDSSDNTDHDPIIPVLTRDTTLDVLLKYDSKIKTGTDVHFQTALLYTDIDGVRKVRSINTSGAVSNNIREIFKFINQNPVMRIMIKDVIKTLGDCDFVKIRRLIDDKMVEILTQYRGLVSSNSSTQLILPDSIKTLPAYMLAFEKSELMKPNAQSTRGNERIYDLLKYDSLNSAQLCYKLYPQIVPFHVLLEETDLTFYDANDKLLQINSSSINNLSVRASHSNFINGGCYLIFQGDTIYLWFNENTNRMLLQDLLSVDESLPVSQISLFSGTLPETGTSINQKASNVIKNWQQVVNKSSLPLVLLRPNVDQYYSNVMSQLLCEDKTVNRIESYDNYLVIMHKKIQEKLQKDDFIKVSTAATHENIHQKFVQF
B5: Nub-Syp1 (protein, UniProt P25623 1-870)
chain: MTEQRTKYADSILTTKSPYEATETIRIRLSQVKLLNKDFYLLFKELANLKRNYAQQLRKIIAENEDITKILNAQMIESNVLTPQEMSAFRFNSLGELRNVWDTVIEELKSDLKSSTEYYNTLDQQVVRELKESVENNTSWRESKDLHSKLSKNAASIEHYSKNNENSSHLEEARRQWDQQSPYLFELFETIDYNRLDTLKNCMLRFQTSFSDYLLNTTKECETVMTKFLAFEPQSEIDRFAKDASQYNFQLSSSSKEVVPNNASPASATGARPVSVSNGAANTEREKKSPQKDKRKSAFGNIGHRLASASSSLTHNDLMNNEFSDSTNNSSLKSKKSSHTLRSKVGSIFGRNKTKNKRQQQSSSNSHIQASITETPNNSSTRVSSTATSSIYQKQRRPTYSSSKSNNWTPGEASDTPPLPPHATPKNVDAPVTADTPPAQTFTPSEVPPSTPQQSSPPTAKEPDSSNLPKTVPISISQPPLQPQSKTKPLPVEPASPSISLPTATVDNQPSGQVDSRPLHIRAPALPPSRKQNFIHNRDSQLYDSLPNHGSGATPTSSSLSSIPQERPVSTLSSQITGELRELNPQATGSSTSLVGQSLFQHSSLDTSQFGLNASIAEVLNASFKDGMLQNSQLIGEIALNYLPNSVMNSPLPIGINLRINNGAKFEKVILNQAFIERVAPEEFKVNPSFIDSRTLGAIKYSIKEPIAPIVIHPVWRFESHQASVVLTVKMSPSLPDEISQIVIEDLVVFVNIDGANATSALSKPQGSFSKEKKRITWRFKEPVVLTRNGEGQRLIARFITDGLAHESAKGVITKFTISETDNVALPHSGAGSGITLTCQELDENNPFGGEWLDVNTKRTLTTGNYHGLA
B6: Nub-Vps1 (protein, UniProt P21576 1-704)
chain: MDEHLISTINKLQDALAPLGGGSQSPIDLPQITVVGSQSSGKSSVLENIVGRDFLPRGTGIVTRRPLVLQLINRRPKKSEHAKVNQTANELIDLNINDDDKKKDESGKHQNEGQSEDNKEEWGEFLHLPGKKFYNFDEIRKEIVKETDKVTGANSGISSVPINLRIYSPHVLTLTLVDLPGLTKVPVGDQPPDIERQIKDMLLKYISKPNAIILSVNAANTDLANSDGLKLAREVDPEGTRTIGVLTKVDLMDQGTDVIDILAGRVIPLRYGYIPVINRGQKDIEHKKTIREALENERKFFENHPSYSSKAHYCGTPYLAKKLNSILLHHIRQTLPEIKAKIEATLKKYQNELINLGPETMDSASSVVLSMITDFSNEYAGILDGEAKELSSQELSGGARISYVFHETFKNGVDSLDPFDQIKDSDIRTIMYNSSGSAPSLFVGTEAFEVLVKQQIRRFEEPSLRLVTLVFDELVRMLKQIISQPKYSRYPALREAISNQFIQFLKDATIPTNEFVVDIIKAEQTYINTAHPDLLKGSQAMVMVEEKLHPRQVAVDPKTGKPLPTQPSSSKAPVMEEKSGFFGGFFSTKNKKKLAALESPPPVLKATGQMTERETMETEVIKLLISSYFSIVKRTIADIIPKALMLKLIVKSKTDIQKVLLEKLYGKQDIEELTKENDITIQRRKECKKMVEILRNASQIVSSV

This test has as its target T1, Shs1-CCG (S. cerevisiae). Nature of the test: split reporter; steady-state SPLIFF (split-ubiquitin, mCherry-Cub-GFP): diploid cells with Shs1-CCG and a Nub fusion, 100 μM Cu2+, GFP/mCherry ratio at the bud neck; strong > 70%, weak > 30%, below 30% CCG to CC conversion non-interacting.
For B1, the binding entry is reported as “binds”. Under B2 stands “binds”; under B3, “binds weakly”. Consider B4, for which the binding entry is listed as “binds weakly”. In the case of B5 it was “binds weakly”; in that of B6, “binds weakly”.

Values taken from PMC4752459.
